Measured values published in PMC4336329 (PLoS ONE, 2015).
In all, about 310,000 compounds went through this assay and about 2,200 (0.71%) showed an effect of 50% or more. Effects have a minus sign here. This is one part of the list.

Target: human ether-à-go-go-related gene (hERG) potassium channel (human, UniProt Q12809)
Experiment: primary screen, population patch clamp on CHO cells stably expressing hERG

Sequence of human ether-à-go-go-related gene (hERG) potassium channel (Q12809 whole entry, looked up): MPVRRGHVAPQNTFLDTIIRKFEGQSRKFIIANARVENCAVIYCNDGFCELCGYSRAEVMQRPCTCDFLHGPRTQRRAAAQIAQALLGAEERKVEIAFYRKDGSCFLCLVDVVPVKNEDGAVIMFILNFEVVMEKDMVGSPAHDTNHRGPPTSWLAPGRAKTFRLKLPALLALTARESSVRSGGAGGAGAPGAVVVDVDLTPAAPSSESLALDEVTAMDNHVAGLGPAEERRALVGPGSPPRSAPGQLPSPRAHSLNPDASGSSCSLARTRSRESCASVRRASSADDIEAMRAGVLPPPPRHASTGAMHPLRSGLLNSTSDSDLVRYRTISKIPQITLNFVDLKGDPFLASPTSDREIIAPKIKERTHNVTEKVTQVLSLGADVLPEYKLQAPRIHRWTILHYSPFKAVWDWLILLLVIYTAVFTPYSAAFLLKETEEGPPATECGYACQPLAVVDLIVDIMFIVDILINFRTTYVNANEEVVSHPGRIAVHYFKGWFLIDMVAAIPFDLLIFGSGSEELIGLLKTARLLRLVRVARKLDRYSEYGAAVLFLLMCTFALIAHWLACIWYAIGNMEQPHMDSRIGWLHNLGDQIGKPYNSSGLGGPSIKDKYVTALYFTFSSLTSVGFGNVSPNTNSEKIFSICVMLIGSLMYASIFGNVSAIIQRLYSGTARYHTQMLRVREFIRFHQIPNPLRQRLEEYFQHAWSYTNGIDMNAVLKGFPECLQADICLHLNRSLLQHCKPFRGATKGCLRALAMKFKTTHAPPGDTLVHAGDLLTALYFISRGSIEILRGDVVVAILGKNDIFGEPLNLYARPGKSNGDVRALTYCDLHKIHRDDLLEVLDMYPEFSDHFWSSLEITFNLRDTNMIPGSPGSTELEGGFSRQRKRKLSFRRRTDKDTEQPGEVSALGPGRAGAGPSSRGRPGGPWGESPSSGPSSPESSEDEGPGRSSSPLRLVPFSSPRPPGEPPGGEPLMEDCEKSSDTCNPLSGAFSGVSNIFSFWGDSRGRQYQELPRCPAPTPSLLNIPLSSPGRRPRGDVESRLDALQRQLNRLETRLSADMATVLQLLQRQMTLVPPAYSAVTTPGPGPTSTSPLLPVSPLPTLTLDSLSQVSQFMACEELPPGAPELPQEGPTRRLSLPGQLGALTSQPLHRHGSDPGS

Compound | hERG current change (%, negative = inhibition) at 1uM [%]
CCSc1nnc(NC(=O)NCC(F)(F)F)s1 | 1.94
Cc1cc(C(=O)CSc2ccc(Cl)cc2)cc(C)c1OC(=S)N(C)C | 11.9
Cc1ccnc(NS(=O)(=O)c2ccc(NC(=O)c3oc4ccc(F)cc4c3C)cc2)n1 | 9.74
COc1ccc(-n2c(SCC(=O)Nc3ncc(Cl)cc3Cl)nc3ccccc32)cc1 | -1.67
N#Cc1ccc(C(=O)OCCCc2cc3ccccc3c(=O)o2)cc1 | -37.9
COc1ccc(C(=O)C(C)OC(=O)c2nc3nccc(C)n3n2)cc1 (stereo not shown) | 9.8
Cn1c(O)c(C(C#N)=C2N=c3ccccc3=N2)c2ccccc21 | 4.36
CC(C)c1ccccc1NC(=O)CCCC(=O)O | 2.58
COc1ccc(NC(=O)CNC(=O)Cn2c(C)cc3ccccc3c2=O)cc1OC | 10.5
Cc1ccc(-n2c3c(cc(C(=O)O)c2=O)C(=O)CC(C)(C)C3)cc1 | 16.5
COc1ccc(N2CC(C(=O)N/N=C/c3ccc(C)cc3)CC2=O)cc1 (stereo not shown) | 8.57
COCc1c(C(=O)N/N=C/c2ccc(C)o2)nnn1-c1nonc1N | 16.1
CCOC(=O)C1(Cc2ccccc2)CCN(Cc2cc(=O)c3ccccc3[nH]2)CC1 | 5.22
O=C(Nc1ccc(O)c(-c2nc3ccccc3o2)c1)C1(c2ccc(Br)cc2)CCCC1 | 6.48
COCCNC(=O)C(=O)NCC1OCCN1S(=O)(=O)c1cccs1 (stereo not shown) | 8.72
CCC1(c2ccc(F)cc2)NC(=O)N(CC(=O)Nc2ccccc2C)C1=O (stereo not shown) | 10.1
O=C(CSC1CN(C(c2ccccc2)c2ccccc2)C1)N/N=C/c1ccc(Cl)cc1Cl | 6.72
COCCSc1nnc(NC(=O)CSCc2ccccc2)s1 | 10.1
CCCC(C(=O)Nc1ccc(S(=O)(=O)N2CCOCC2)cc1)c1ccccc1 (stereo not shown) | 1.63
O=C(NNC(=O)c1c(F)cccc1F)c1sccc1-n1cccc1 | 8.94
COc1ccc(/C=C/C(=O)OCC(=O)N2CCc3ccccc32)cc1 | 10.3
CCOC(=O)CSc1ncc(OC)c(Sc2ccc(OC)cc2)n1 | 8.66

Compound | hERG current change (%, negative = inhibition) at 1uM [%]
CC(C)C1Oc2ccccc2N(CC(=O)N(C)C2CCCCC2)C1=O (stereo not shown) | 7.7
CC(C)(Oc1ccc(Cl)cc1)C(=O)OCC(=O)N1CCN(c2ccccc2)CC1 | -5.7
CC(=O)N1c2ccc(S(=O)(=O)NCC3CCC(C(=O)NCc4ccco4)CC3)cc2CC1C (stereo not shown) | 11.5
CC(C)[C@H](NC(=O)c1cccc(S(=O)(=O)N2CCOCC2)c1)C(=O)Nc1nc2ccccc2s1 | 6.3
C=CCN1C(=O)CN=C1Nc1ccc(OC)cc1OC.Cl | 11.5
Cc1nnc(-c2cnn(C)c2N)n1Cc1ccc2c(c1)OCO2 | 12.6
CCc1nccn1S(=O)(=O)c1cc(Br)ccc1OC | 15.8
CC1(C)Cc2nc3sc4c(=O)n(Cc5ccccc5)cnc4c3cc2CS1 | 6.46
CC(=O)Nc1ccc(S(=O)(=O)NCCc2cn3nc(C)c(C)nc3n2)cc1 | 17.3
O=C1CN(C(=O)C2CCCC2)CCN1 | 19.3
O=C(COC(=O)CCC(=O)c1ccc(F)cc1)NCc1ccco1 | 12.3
CCCC(=NC(C)CC)C1=C(O)CC(c2ccccc2)CC1=O (stereo not shown) | 8.44
CCCCN(C(=O)C1CC(=O)N(CCc2ccc(OC)c(OC)c2)C1)c1c(N)n(CCCC)c(=O)[nH]c1=O (stereo not shown) | 7.68
COc1ccc(Nc2nc(NCc3ccco3)nc(N/N=C/c3ccccc3F)n2)cc1 | 4.11
COc1cc(/C=N/n2c(C3CCCCC3)n[nH]c2=S)cc(Br)c1O | 15.1
O=C(N/N=C/c1cc(Br)c(O)c(Br)c1)c1cccnc1 | 18.5
Cc1cc(=O)n2ncnc2n1COCCO | 7.25
O=C(c1ccco1)N1CCN(CC(O)COc2ccc3oc4ccccc4c3c2)CC1 (stereo not shown) | -25.2
C=CCN(c1ccccc1)S(=O)(=O)c1ccc(Cl)c(C(=O)OCC(=O)c2[nH]c(C)c(C(C)=O)c2C)c1 | 12
COc1cc(/C=N/N2CCN(c3ccccc3OC)CC2)ccc1OC(C)=O | 15.7
O=C(N/N=C/c1cccnc1)c1cccc(S(=O)(=O)N2CCCC2)c1 | 10.5
Cc1ccc(NC(=O)CSc2nc3ccccc3c(=O)n2CC2CCCO2)cc1 (stereo not shown) | 11.7

Compound | hERG current change (%, negative = inhibition) at 1uM [%]
COc1cccc(C2=NOC(C(=O)Nc3ccccc3SC)C2)c1 (stereo not shown) | 11.1
Br.Cc1csc(Nc2cccc3ccccc23)n1 | 18.7
COC(=O)c1ccccc1OC(=O)c1ccc(Br)o1 | 4.18
COc1cccc(-n2c(N)c(C(=O)Nc3c(C)n(C)n(-c4ccccc4)c3=O)c3nc4ccccc4nc32)c1 | 0.599
Cc1cccc(C)c1NS(=O)(=O)c1ccc2c(c1)NC(=O)CO2 | 8.92
Cc1ccc2c(c1)N(Cc1ccc([N+](=O)[O-])cc1)C=NS2(=O)=O | -2.66
Cc1cccc(NC(=O)/C=C/c2cccs2)n1 | 4.37
O=C(O)CN1C(=O)C(=O)N(Cc2ccc(Cl)c(Cl)c2)C1=O | -6.21
COc1cc2c(cc1CN1CCN(C(=O)c3cc(OC)c(OC)c(OC)c3)CC1)OCO2 | 11.4
CSC1=N/C(=C/c2ccc(-n3cncn3)cc2)C(=O)N1 | 11.2
COc1ccc(S(=O)(=O)N2CCCCCC2)cc1C(=O)OC(C)C(N)=O (stereo not shown) | 7.56
COc1ccc(OC)c(NC(=O)C(C)SCc2nc3sc(C)c(C)c3c(=O)[nH]2)c1 (stereo not shown) | -1.73
COCCCNC(=O)CN1C(=O)c2ccccc2C1=O | 6.62
CC1CCN(C(=O)CSc2n[nH]c(-c3cccs3)n2)CC1 | 4.8
CCOC(=O)c1c(C)n(C)c2ccc(OC)c(NS(=O)(=O)CC)c12 | 1.35
COCCN1C(=O)c2ccccc2C(C(=O)NCCN(C)C)C1c1ccc(F)cc1 (stereo not shown) | 13.8
O=[N+]([O-])c1ccc(Cl)c(/C=N/n2c(-c3cccnc3)n[nH]c2=S)c1 | 8.62
COC(=O)c1cn(C(=O)c2cccc(C)c2)c2ccccc12 | 0.386
Cc1cc(C)n(CC(=O)N2CCCC(N3CCN(c4cccc(C(F)(F)F)c4)CC3)C2)n1 (stereo not shown) | 0.938
COc1ccc(-c2n[nH]c3c2CN(C(=O)c2ccc(OC)c(OC)c2)CC3)cc1 | 8.55
CCCC(=O)Nc1cc(C)c(NC(=O)c2cccs2)cn1 | -6.47
Cc1ccc(C)c(NS(=O)(=O)c2ccc3c(c2)Cc2cc(S(=O)(=O)Nc4cc(C)ccc4C)ccc2-3)c1 | 9.9

Compound | hERG current change (%, negative = inhibition) at 1uM [%]
CC(C)CC(=O)c1c[nH]c(C(=O)NCC2CCCO2)c1 (stereo not shown) | 7.25
COc1ccc(C(=O)CCNc2ccc3c(c2)OCCO3)cc1 | 17.7
CCOc1ccc(NC(=O)CN(C)C(=O)CSCc2cccc(C)c2)cc1OCC | 14.2
COc1ccc(C)cc1S(=O)(=O)Nc1cccnc1 | -11.5
COc1ccc2nc3oc(C(=O)NC4CCN(Cc5ccccc5)CC4)cc3cc2c1 | 2.54
Cc1cc(NC(=O)CSCC(=O)OCC(=O)Nc2cc(C)c(C)cc2[N+](=O)[O-])no1 | 12.9
Cc1cc(NC(=O)C(C)(C)C)no1 | 6.36
Cc1cc(C)c(NC(=O)CCCCCNC2CCCCC2)c(C)c1.Cl | 11.4
CC12CN3CCN(CC(C3)/C1=N\N=C1/C3CN4CCN(C3)CC1(C)C4)C2 | -4.23
COc1ccc(NC(=O)c2ccc(F)c(F)c2)c2ccccc12 | 19.9
COc1ccc(OC)c(-n2c(CNC3CCN(Cc4ccccc4)CC3)nc3ccccc3c2=O)c1 | -69.9
CCO[C@H]1OC(C(=O)Nc2ccccc2)=C[C@@H](C)[C@@H]1CCCO | 11.6
CN(C)S(=O)(=O)c1ccc(F)c(C(=O)Nc2ccccc2C(=O)NC2CC2)c1 | -3.86
CC(=O)c1cc2c(cc1NC(=O)CN1CCN(c3ccc(F)cc3)CC1)OCO2 | 12
Cc1ccc(C(=O)NCc2nc3ccccc3[nH]2)o1 | 7.59
CC1=NN(C(N)=S)C(=O)C1N=Nc1ccccc1Cl (stereo not shown) | 12.9
CCNc1cc(=O)n(C)c(=O)n1C | 1.89
O=C(N/N=C/C=C\c1ccccc1[N+](=O)[O-])c1ccccn1 | 10.7
COC(=O)N1C(=O)[C@](Cc2ccccc2)(c2ccccc2)N1C(=O)OC | 15.4
CC(/C=N/NC(=O)CSc1nnc(SCc2ccccc2)s1)=C\c1ccco1 | 0.144
Cc1ccnc(NC(=O)CCC(=O)N(CC(=O)NC2CCCCC2)Cc2cccs2)c1 | 12.5
CC(C)(CO)N1CCN(C(=S)Nc2ccccc2)CC1 | 13.8
